Reference: the supplement of paper PMC9174493
Structures can show the parent of a compound that is named as a salt. This is one part of the list. Single values of this set are uncertain. Values with irradiation are relative to irradiated vehicle.

Columns and labels:
[1] = system: A549-Dual; assay: NF-kB reporter (SEAP) activity, viability-corrected, relative to vehicle (fold change vs vehicle); higher = more activation of STING-IRF / NF-kB immune response reporter; conditions: 10 µM
[2] = system: A549-Dual; assay: ISRE reporter (Lucia luciferase) activity, viability-corrected, relative to vehicle (fold change vs vehicle); higher = more activation of STING-IRF / NF-kB immune response reporter; conditions: 10 µM
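Throughout, for NF-kB reporter (SEAP) activity, viability-corrected, relative to vehicle: viability correction based on the alamar blue assay, with concentrations leaving 10% survival or less dropped.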

Cc1onc(-c2ccccc2)c1C(=O)NC1C(=O)N2C1SC(C)(C)C2C(=O)[O-].O.[Na+] (stereo not drawn) [Oxacillin sodium monohydrate]
NF-kB reporter ([1]; irradiation: 8 Gy/4 fr): 0.993 | NF-kB reporter ([1]; irradiation: none): 0.976 | ISRE reporter ([2]; irradiation: 8 Gy/4 fr): 0.892 | ISRE reporter ([2]; irradiation: none): 1.04

CC1CN(CC(Cc2ccccc2)C(=O)NCC(=O)O)CCC1(C)c1cccc(O)c1.O.O (stereo not drawn) [Alvimopan dihydrate]
NF-kB reporter ([1]; irradiation: 8 Gy/4 fr): 0.655 | NF-kB reporter ([1]; irradiation: none): 0.579 | ISRE reporter ([2]; irradiation: 8 Gy/4 fr): 0.642 | ISRE reporter ([2]; irradiation: none): 0.468

CCCC(CCC)C(=O)[O][Na] [Valproic acid sodium salt (Sodium valproate)]
NF-kB reporter ([1]; irradiation: 8 Gy/4 fr): 0.724 | NF-kB reporter ([1]; irradiation: none): 0.961 | ISRE reporter ([2]; irradiation: 8 Gy/4 fr): 0.831 | ISRE reporter ([2]; irradiation: none): 0.764

CCCc1nc(C)c2c(=O)[nH]c(-c3cc(S(=O)(=O)N4CCN(CC)CC4)ccc3OCC)nn12.Cl.O.O.O [Vardenafil HCl Trihydrate]
NF-kB reporter ([1]; irradiation: 8 Gy/4 fr): 1.06 | NF-kB reporter ([1]; irradiation: none): 0.692 | ISRE reporter ([2]; irradiation: 8 Gy/4 fr): 1.43 | ISRE reporter ([2]; irradiation: none): 0.872

O=[N+]([O-])c1cncn1CCN1CCOCC1 [Nimorazole]
NF-kB reporter ([1]; irradiation: 8 Gy/4 fr): 0.989 | NF-kB reporter ([1]; irradiation: none): 1.06 | ISRE reporter ([2]; irradiation: 8 Gy/4 fr): 0.985 | ISRE reporter ([2]; irradiation: none): 1.07

O=c1ccn(C2OC(CO)C(O)C2O)c(=O)[nH]1 (stereo not drawn) [Uridine]
NF-kB reporter ([1]; irradiation: 8 Gy/4 fr): 0.746 | NF-kB reporter ([1]; irradiation: none): 0.996 | ISRE reporter ([2]; irradiation: 8 Gy/4 fr): 0.711 | ISRE reporter ([2]; irradiation: none): 0.73

Cc1ncc([N+](=O)[O-])n1CC(O)CCl (stereo not drawn) [Ornidazole]
NF-kB reporter ([1]; irradiation: 8 Gy/4 fr): 0.855 | NF-kB reporter ([1]; irradiation: none): 0.954 | ISRE reporter ([2]; irradiation: 8 Gy/4 fr): 0.862 | ISRE reporter ([2]; irradiation: none): 0.808

CCC(CO)NCCNC(CC)CO.Cl.Cl (stereo not drawn) [Ethambutol 2HCl]
NF-kB reporter ([1]; irradiation: 8 Gy/4 fr): 1.02 | NF-kB reporter ([1]; irradiation: none): 1.01 | ISRE reporter ([2]; irradiation: 8 Gy/4 fr): 1.09 | ISRE reporter ([2]; irradiation: none): 0.889

O=c1[nH]cnc2c1ncn2C1OC(CO)C(O)C1O (stereo not drawn) [Inosine]
NF-kB reporter ([1]; irradiation: 8 Gy/4 fr): 0.773 | NF-kB reporter ([1]; irradiation: none): 1.06 | ISRE reporter ([2]; irradiation: 8 Gy/4 fr): 0.959 | ISRE reporter ([2]; irradiation: none): 0.89

CC1CCC(C(C)C)C(O)C1 (single isomer, unassigned; (-)) [(-)-Menthol]
NF-kB reporter ([1]; irradiation: 8 Gy/4 fr): 0.86 | NF-kB reporter ([1]; irradiation: none): 1.35 | ISRE reporter ([2]; irradiation: 8 Gy/4 fr): 0.954 | ISRE reporter ([2]; irradiation: none): 0.762

CN(C)c1ccc(C(=C2C=CC(=[N+](C)C)C=C2)c2ccc(N(C)C)cc2)cc1.[Cl-] [Crystal Violet]
NF-kB reporter ([1]; irradiation: 8 Gy/4 fr): 1.17 | NF-kB reporter ([1]; irradiation: none): 2.02 | ISRE reporter ([2]; irradiation: 8 Gy/4 fr): 0.112 | ISRE reporter ([2]; irradiation: none): 0.755

O=C(O)c1cc(O)c2c(c1)C(C1c3cc(C(=O)O)cc(O)c3C(=O)c3c(OC4OC(CO)C(O)C(O)C4O)cccc31)c1cccc(OC3OC(CO)C(O)C(O)C3O)c1C2=O (stereo not drawn) [Sennoside A]
NF-kB reporter ([1]; irradiation: 8 Gy/4 fr): 1.36 | NF-kB reporter ([1]; irradiation: none): 0.951 | ISRE reporter ([2]; irradiation: 8 Gy/4 fr): 1.3 | ISRE reporter ([2]; irradiation: none): 0.859

NC(=O)N1c2ccccc2C=Cc2ccccc21 [Carbamazepine]
NF-kB reporter ([1]; irradiation: 8 Gy/4 fr): 0.646 | NF-kB reporter ([1]; irradiation: none): 1.05 | ISRE reporter ([2]; irradiation: 8 Gy/4 fr): 0.684 | ISRE reporter ([2]; irradiation: none): 1.03

O=c1c(OC2OC(CO)C(O)C(O)C2O)c(-c2ccc(O)c(O)c2)oc2cc(O)cc(O)c12 (stereo not drawn) [Isoquercitrin]
NF-kB reporter ([1]; irradiation: 8 Gy/4 fr): 0.646 | NF-kB reporter ([1]; irradiation: none): 0.659 | ISRE reporter ([2]; irradiation: 8 Gy/4 fr): 0.552 | ISRE reporter ([2]; irradiation: none): 0.549

Cc1occc(=O)c1O [Maltol]
NF-kB reporter ([1]; irradiation: 8 Gy/4 fr): 0.89 | NF-kB reporter ([1]; irradiation: none): 0.855 | ISRE reporter ([2]; irradiation: 8 Gy/4 fr): 1.01 | ISRE reporter ([2]; irradiation: none): 0.896

O=c1cc(-c2ccc(O)cc2)oc2cc(O)cc(O)c12 [Apigenin]
NF-kB reporter ([1]; irradiation: 8 Gy/4 fr): 0.653 | NF-kB reporter ([1]; irradiation: none): 0.563 | ISRE reporter ([2]; irradiation: 8 Gy/4 fr): 0.66 | ISRE reporter ([2]; irradiation: none): 0.945

O=C1OC(C(O)CO)C(O)C1O.[NaH] (stereo not drawn) [Sodium ascorbate]
NF-kB reporter ([1]; irradiation: 8 Gy/4 fr): 0.733 | NF-kB reporter ([1]; irradiation: none): 1.04 | ISRE reporter ([2]; irradiation: 8 Gy/4 fr): 0.793 | ISRE reporter ([2]; irradiation: none): 0.778
